Measurements as given in PubChem BioAssay AID1240 (Sanford-Burnham Center for Chemical Genomics, 2008).
Hit rate of the full screen: of about 50,000 compounds, about 800 (1.6%) showed an effect of 50% or more. Some of the results follow.

Biological target: Bcl-2-like protein 10 (Homo sapiens) (UniProt Q9HD36)
Experiment: Phenotype converters, Bcl-B/TR3 peptide binding displacement, primary biochemical FP (AID 1240);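 also: 0% = Bcl-B with tracer peptide and DMSO and 100% = tracer peptide lacking Bcl-B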
Conditions: GST-Bcl-B / FITC-TR3 peptide fluorescence polarization; stronger effect = higher value; compound at 3.75 mg/L

Chain of UniProt Q9HD36 (Q9HD36 whole entry, looked up): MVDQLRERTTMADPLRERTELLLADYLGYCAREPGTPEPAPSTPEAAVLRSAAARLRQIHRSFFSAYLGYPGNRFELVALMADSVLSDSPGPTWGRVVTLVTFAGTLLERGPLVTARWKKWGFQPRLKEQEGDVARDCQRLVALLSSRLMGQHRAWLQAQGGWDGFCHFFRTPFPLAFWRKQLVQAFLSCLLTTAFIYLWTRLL

Going from `O=C(Nc1ccccc1[N+](=O)[O-])c1cc(-c2cccs2)nc2ccccc12` to `O=C(Nc1cc(-c2nc3ccccc3o2)ccc1Cl)c1cccs1`, the displacement falls from 8.4% to -1.6%.

Compared with `CC(=O)/C(N=Nc1ccc2c(c1)OCCO2)=C(\C)O`, `O=C1S/C(=C\c2ccc3c(c2)OCO3)C(=O)N1Cc1ccccc1` is lower in displacement: 15.9% for the first, -6.3% for the second.

First: O=C(c1cccs1)N1CCCCCC1
Second: CCN(CC)c1ccc(C(=O)N2CCCCC2)cc1
The displacement of the first is higher: 0.2% for the first, -7.2% for the second.

First: COC(=O)c1ccc(/C=C/C(=O)c2cccc([N+](=O)[O-])c2)cc1
Second: CCCOC(=O)c1cccc(NC(=O)/C=C/c2ccc(Cl)cc2)c1
The displacement of the first is lower: 9.2% for the first, 17.6% for the second.

First: Cc1ccc(O)c(-c2cc(-c3ccc(C(F)(F)F)cc3)n[nH]2)c1
Second: Oc1ccc(Br)cc1-c1nnc2ccc3ccccc3n12
The displacement of the first is lower: -4.7% for the first, 16.4% for the second.

First: CC(C)(C)NC(=O)C1C(C=C(Cl)Cl)C1(C)C (configuration not stated)
Second: COc1cccc(C2=NN(C(=O)c3ccc(C(C)(C)C)cc3)C(O)(C(F)(F)F)C2)c1 (configuration not stated)
The displacement of the first is higher: 12% for the first, -25.4% for the second.

First: CSc1ccc(/C=N/NC(=O)COc2cccc(C)c2)cc1
Second: Cc1ccc(OCC(=O)N/N=C\c2ccc(OC(=O)c3cccs3)cc2)cc1
The displacement of the first is higher: 6.9% for the first, -0.3% for the second.

Going from `Cc1ccc(-c2csc(NC(=O)CCCC(=O)O)n2)cc1` to `O=C(/C=C/c1ccccc1)NC(=S)Nc1nc(-c2ccccc2)cs1`, the displacement rises from -1.6% to 3.8%.

First: Clc1ccc2nc(N/N=C/c3nc4ccccc4[nH]3)nc(-c3ccccc3)c2c1
Second: N#C/C(=C(/O)c1cccc2ccccc12)c1nc2ccccc2[nH]1
The displacement of the first is higher: 0.7% for the first, -6.8% for the second.

First: COc1cc(OC)cc(C(=O)O/N=C2/C(=O)N(C)c3ccccc32)c1
Second: COc1ccc(/C=C/C(=O)Nc2ccccc2F)cc1OC
The displacement of the first is higher: 11.6% for the first, -18.7% for the second.

Compared with `CCOC(=O)C1=C(O)/C(=C/N(C)C)N=C1C`, `CCOC(=O)C1=C(C)NC(=S)NC1c1ccccc1OC(F)F` (configuration not stated) is lower in displacement: 17.3% for the first, -13.5% for the second.

Compared with `Cc1cc2nc(-c3ccccc3)cc(-c3ccccc3)n2n1`, `CCOc1ccccc1NC(=O)c1c(-c2ccccc2)noc1C` is higher in displacement: -21.9% for the first, -2.7% for the second.

Compared with `Nc1n[nH]c(N)c1N=Nc1ccc(Cl)cc1`, `Cc1ccc2nc(NC(=S)NC(=O)c3ccc(Cl)cc3)sc2c1` is higher in displacement: -1% for the first, 15.2% for the second.

First: COc1ccc(C(=O)Nc2ccc(NC(=O)c3ccco3)c(OC)c2)cc1
Second: COc1ccc(OC)c(/C=C(/C#N)C(=O)Nc2ccc(Cl)cc2)c1
The displacement of the first is lower: -11.4% for the first, 36.4% for the second.

Going from `CC1=C(C(=O)Nc2ccccc2C)C(c2ccc(C(C)C)cc2)NC(=O)N1` (configuration not stated) to `COc1ccccc1NC(=O)C1=C(C)NC(=O)NC1c1ccccc1Cl` (configuration not stated), the displacement falls from 14.9% to -0.9%.

Compared with `CC(C)N(C(=O)c1ccc(C(=O)N(C(C)C)C(C)C)cc1)C(C)C`, `CC(=O)c1ccc(NC(=O)c2ccc(N(Cc3ccccc3)S(C)(=O)=O)cc2)cc1` is lower in displacement: 12.9% for the first, -0.6% for the second.

First: COc1cccc(NC(=O)c2cc(I)ccc2Cl)c1
Second: CCCCOC(=O)c1ccc(NC(=O)c2cccc(Cl)c2)cc1
The displacement of the first is lower: -1.8% for the first, 0.3% for the second.

Compared with `Clc1ccccc1OCCCCCN1CCCC1`, `CCCCNCCCOc1ccccc1CC` is higher in displacement: 5.8% for the first, 13.3% for the second.

First: C=CCn1c2ccccc2c2nnc(SCC(=O)Nc3sc4c(c3C#N)CCCC4)nc21
Second: Cc1nnc(SCC(=O)Nc2sc3c(c2C#N)CCCC3)[nH]c1=O
The displacement of the first is lower: -25.6% for the first, 5.4% for the second.

First: Cc1ccc(OCC(=O)O/N=C(\N)c2cccnc2)c(C)c1
Second: Cc1ccc(OCC(=O)Nc2ccc(Cl)c([N+](=O)[O-])c2)c(C)c1
The displacement of the first is higher: 4.5% for the first, -0.3% for the second.

Compared with `COc1ccccc1C(=O)N1CCN(Cc2ccc([N+](=O)[O-])cc2)CC1`, `COc1ccc(CN2CCN(C(=O)c3cccs3)CC2)cc1OC` is lower in displacement: 7.8% for the first, -5.8% for the second.

Compared with `CCCCc1c(C)nc(N/N=C(\C)c2cccc([N+](=O)[O-])c2)[nH]c1=O`, `Cc1cccc2nc(-c3cccc([N+](=O)[O-])c3)oc(=O)c12` is higher in displacement: -1.2% for the first, 26.3% for the second.

Compared with `O=C(Cn1nc(-c2ccccc2)c2ccccc2c1=O)N1CCCCC1`, `O=C(CSc1nnnn1-c1ccccc1)N1CCCCC1` is lower in displacement: 28% for the first, 7.6% for the second.

First: COc1ccc(CCN(C(=O)/C=C/C(=O)O)C2CC(=O)N(c3ccc(F)cc3)C2=O)cc1 (configuration not stated)
Second: COc1ccc(N2C(=O)CC(N3CCC(C)CC3)C2=O)cc1 (configuration not stated)
The displacement of the first is lower: -4.2% for the first, 0% for the second.

First: O=c1[nH]c(SCc2nc3ccccc3[nH]2)nc2ccccc12
Second: O=C(c1ccccc1Br)N1C(=O)c2ccccc2S1(=O)=O
The displacement of the first is higher: 5.4% for the first, -9.7% for the second.

Compared with `O=C(CSCC(=O)c1ccc(F)cc1)Nc1ccc2ccccc2c1`, `CC(=O)NS(=O)(=O)c1ccc(NC(=O)c2ccc(F)cc2)cc1` is higher in displacement: -17.7% for the first, -9.6% for the second.

First: CC(C)(C)c1cc(N2C(=O)C(=O)/C(=C(/O)c3ccc(Cl)cc3)C2c2cccc(F)c2)no1 (configuration not stated)
Second: CC1=C(C(=O)OCCc2ccccc2)C(c2ccc(Cl)cc2)C2=C(CCCC2=O)N1 (configuration not stated)
The displacement of the first is lower: -4.3% for the first, -3.6% for the second.

Going from `O=C(O)c1cccc(N2Cc3ccccc3C2)c1` to `O=[N+]([O-])c1ccc(C(O)CN2CCN(c3ccccc3)CC2)cc1` (configuration not stated), the displacement falls from 11.3% to -6.6%.

First: CCCCOc1ccc(NC(=O)COc2ccccc2OC)cc1
Second: COC(=O)CCC(=O)Oc1ccc(-c2ccccc2)cc1
The displacement of the first is lower: -8% for the first, 5.5% for the second.

Going from `O=C(NC(NC(=S)Nc1cccc(O)c1)C(Cl)(Cl)Cl)c1cccc([N+](=O)[O-])c1` (configuration not stated) to `O=[N+]([O-])c1ccc2c(c1)c1ccccc1n2CO`, the displacement falls from 4.9% to -6.7%.

First: c1ccc(Nc2nc(-c3ccncc3)cs2)nc1
Second: O=C(NCc1ccncc1)C(=O)Nc1nccs1
The displacement of the first is lower: -9.6% for the first, 8% for the second.

Going from `CCOC(=O)c1[nH]nc2c1C(=O)N(c1ccc(OC)c(Br)c1)C2=O` to `CCOC(=O)c1cnc2cc(-c3ccc(Br)cc3)[nH]n2c1=O`, the displacement rises from -8.3% to 11%.

First: O=c1nc(/C=C/c2ccc(N3CCCC3)cc2)cc(C(F)(F)F)[nH]1
Second: Cc1cccc(-n2ncc3c(N4CCCC4)ncnc32)c1
The displacement of the first is lower: -63.9% for the first, -1% for the second.

Compared with `COc1cccc(-n2sc3c(c2=S)-c2cc(Cl)ccc2NC3(C)C)c1`, `COc1ccccc1N1C(=O)/C(=C/c2c(Cl)cccc2Cl)SC1=S` is lower in displacement: 12.6% for the first, -4.4% for the second.

Compared with `Cc1ccc(N2C(=O)NC(=O)/C(=C\c3ccc(O)c(Cl)c3)C2=O)cc1`, `CCOc1cc(/C=C2\SC(=S)N(c3ccccc3)C2=O)cc(Br)c1O` is lower in displacement: 0.7% for the first, -40% for the second.

Going from `COc1ccccc1Cc1noc(-c2ccc([N+](=O)[O-])cc2)n1` to `COc1ccc(CNC(=O)c2ccccc2[N+](=O)[O-])cc1`, the displacement falls from -7.3% to -9%.

Going from `NC1=NC(=O)/C(=C\c2ccc(-c3ccc(C(=O)O)cc3)o2)S1` to `CC(=O)Nc1ccc(C2=N/C(=C/c3ccc(Br)cc3)C(=O)O2)cc1`, the displacement rises from -2.4% to 12.9%.

Going from `O=C(Nc1ccc(Cl)c(Cl)c1)Nc1nnc(Cc2ccccc2F)s1` to `O=C(N/N=C/c1ccccc1F)c1ccc(Cl)c(Cl)c1`, the displacement rises from 5.6% to 11.6%.

Going from `O=C(COc1ccc2ccccc2c1)N1CCN(C(=O)c2cccs2)CC1` to `O=C(COc1ccc2ccccc2c1)N1CCN(C(=O)c2ccco2)CC1`, the displacement rises from -13.5% to -12.5%.

Compared with `O=C(NCC1CCCO1)c1cc2n(n1)C(C(F)(F)F)CC(c1ccc(Cl)cc1)N2` (configuration not stated), `CC(=O)C1=C(O)C(=O)N(CC2CCCO2)C1c1ccc(C(C)C)cc1` (configuration not stated) is higher in displacement: 0.1% for the first, 2.1% for the second.

First: COc1cccc(C2=NN(C(=O)c3ccncc3)C(O)(C(F)(F)F)C2)c1 (configuration not stated)
Second: COC(C(=O)N/N=C/c1cccc(C(F)(F)F)c1)c1ccccc1 (configuration not stated)
The displacement of the first is lower: -10.4% for the first, 4.5% for the second.

First: O=[N+]([O-])c1cc(Cl)ccc1N1CCN(S(=O)(=O)c2ccccc2)CC1
Second: COC(=O)CN(c1ccc(OC)cc1)S(=O)(=O)c1ccccc1
The displacement of the first is higher: 9.7% for the first, -3% for the second.

Compared with `O=C(Cc1ccccc1)Nc1ncc(Cc2ccc(F)cc2)s1`, `CN(C)c1ccc(/C=C2\SC(=S)N(C(Cc3ccccc3)C(=O)O)C2=O)cc1` (configuration not stated) is higher in displacement: -1.9% for the first, 2.7% for the second.

Going from `C/C(NCCc1ccccc1)=C(/C#N)C(N)=O` to `Cc1ccccc1NC(=O)c1ccc(Br)o1`, the displacement falls from 11.4% to -8.2%.

Compared with `CSc1ccccc1NC(=O)c1nn2c(c1Br)NC(c1cccs1)CC2C(F)(F)F` (configuration not stated), `CCCn1c(=O)c(C(=O)NNC(=O)COc2ccccc2)c(O)c2ccccc21` is higher in displacement: -1.1% for the first, 9.3% for the second.

Compared with `CN(C)C(=O)COc1cc2oc(=O)c3c(c2cc1Cl)CCCC3`, `Cc1ccc(C)c(N2C(=O)C3C4C=CC(C4=C4CCCC4)C3C2=O)c1` (configuration not stated) is higher in displacement: -7% for the first, 3.8% for the second.

Going from `CCCOC(=O)C1=C(C)NC2=C(C(=O)CC(C)(C)C2)C1c1ccc(F)c(F)c1` (configuration not stated) to `COc1ccc(C2NC(=O)NC(C)=C2C(=O)Nc2cccc(C)c2)cc1OC` (configuration not stated), the displacement rises from -1.9% to 28.3%.

Going from `Cc1cc(C)cc(NC(=O)/C=C/c2ccccc2)c1` to `COC(C(=O)NNC(=O)c1ccccc1Cl)c1ccccc1` (configuration not stated), the displacement falls from 19% to -6.6%.

Going from `CCN(CC)c1ccc(N=Cc2cc(Cl)c(N)c(Cl)c2)cc1` to `O=C(N/N=C/c1ccc([N+](=O)[O-])o1)c1ccc(Cl)c(Cl)c1`, the displacement rises from 0.6% to 19%.

First: O=C1c2ccc3c4c(ccc(c24)C(=O)N1c1ccc2c(c1)oc1ccccc12)CC3
Second: COc1cc(C2C3C(=O)N(Cc4ccccc4)C(=O)C3ON2c2ccccc2)ccc1O (configuration not stated)
The displacement of the first is lower: -1.7% for the first, 13.6% for the second.

Compared with `C#CCC(CC#C)(C(=O)OCC)C(=O)OCC`, `CCOC(=O)Nc1ccc(S(=O)(=O)Nc2cc(C)nc(C)n2)cc1` is higher in displacement: -12% for the first, -0.8% for the second.

Going from `O=C(NC(=S)Nc1ccc(Br)cn1)c1ccco1` to `CNC(=O)C(=O)Nc1ccccc1OC`, the displacement falls from 13.6% to 6.5%.

First: COc1ccc(S(=O)(=O)N(CC(=O)N2CCOCC2)c2ccc(C)cc2)cc1OC
Second: COc1ccc(C(=O)N=Nc2c(O)n(CN3CCN(C)CC3)c3ccc(Br)cc23)cc1
The displacement of the first is higher: 0% for the first, -1.1% for the second.

First: CC(C)CCNS(=O)(=O)c1ccc([N+](=O)[O-])cc1
Second: N#CSCCCCOc1ccc(Br)cc1
The displacement of the first is higher: -3.5% for the first, -4% for the second.

Compared with `Cc1cc(NC(=O)c2ccc3c(c2)C2C=CCC2C(c2ccc(F)cc2)N3)ccc1[N+](=O)[O-]` (configuration not stated), `Cc1ccc(C2=C/C(=C\c3cccnc3)C(=O)O2)cc1` is higher in displacement: -5.8% for the first, 39.5% for the second.

First: O=C(CC1CCCCC1)NC1CCCCC1
Second: CCC(=O)N/C(N)=N\c1nc(OC)c2cc(C)ccc2n1
The displacement of the first is lower: -6.1% for the first, 5.6% for the second.
